Measurements: the supplement of paper PMC3334620
Whole data set: some 33,000 sequences, median “E-score (-0.5 to 0.5)” near -0.032, cut for the highest 2% near 0.36. Some of the results follow.

biological target: T1, Sko1 (UniProt Q02100); test: PBM E-score (8-mer binding enrichment) (E-score (-0.5 to 0.5)); higher = stronger / more preferred TF binding; most listed sequences are background and not binding sites; conditions: protein concentration: 200 nM; construct: GST-full length
T1 sequence: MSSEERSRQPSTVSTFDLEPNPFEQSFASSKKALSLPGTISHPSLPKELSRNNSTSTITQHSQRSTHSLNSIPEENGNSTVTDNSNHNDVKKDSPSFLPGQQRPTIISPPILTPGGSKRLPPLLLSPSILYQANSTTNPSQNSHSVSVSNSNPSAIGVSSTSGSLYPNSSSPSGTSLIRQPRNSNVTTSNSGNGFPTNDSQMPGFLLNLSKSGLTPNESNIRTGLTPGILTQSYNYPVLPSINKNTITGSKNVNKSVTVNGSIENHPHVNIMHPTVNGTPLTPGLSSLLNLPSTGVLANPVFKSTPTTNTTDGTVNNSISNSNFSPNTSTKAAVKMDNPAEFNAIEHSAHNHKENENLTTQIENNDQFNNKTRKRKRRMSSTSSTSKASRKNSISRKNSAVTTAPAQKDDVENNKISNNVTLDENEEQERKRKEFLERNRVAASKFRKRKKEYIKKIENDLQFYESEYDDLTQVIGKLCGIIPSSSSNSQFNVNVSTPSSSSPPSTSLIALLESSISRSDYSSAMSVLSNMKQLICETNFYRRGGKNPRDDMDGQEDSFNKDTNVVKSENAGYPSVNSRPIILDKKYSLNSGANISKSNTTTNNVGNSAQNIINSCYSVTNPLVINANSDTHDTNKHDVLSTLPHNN
How it was run: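 Universal all-10-mer Agilent arrays, double-stranded by primer extension on fresh or once-stripped slides, were probed with about 100-200 nM GST-tagged yeast transcription factors made by PURExpress. Fluorescent anti-GST detected bound protein, and masliner normalised the scans. E-scores from the Universal PBM Analysis Suite were given to each ungapped eight-base word pooled with its reverse complement.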

| Sequence | PBM E-score |
| --- | --- |
| CCCACTAG | -0.271 |
| GTGAGCTA | 0.0389 |
| AAGAAATC | -0.0158 |
| CGCAGGTC | -0.194 |
| CCCCGTGA | -0.166 |
| GAGAATAA | 0.0587 |
| AAACTAGC | -0.135 |
| GGATAAAC | 0.124 |
| GGTTACAA | -0.00351 |
| AATACATA | 0.24 |
| AACGGGCG | -0.151 |
| AACCTGCA | -0.11 |
| AAAGCACA | 0.0298 |
| TATAAATA | 0.298 |
| GGGTTTAC | 0.23 |
| ATACGCCG | -0.00989 |
| ATACCTAA | 0.278 |
| AGCGAGTA | -0.121 |
| AGTGCCAA | -0.171 |
| GGATGGCC | -0.329 |
| CTGAGACC | -0.198 |
| GATCTCAA | -0.0378 |

| Sequence | PBM E-score |
| --- | --- |
| ACTGGCAC | -0.245 |
| AGAGCGAA | -0.147 |
| GCTCATGA | 0.146 |
| GAGGGGTA | -0.202 |
| CATTAGAC | -0.0307 |
| CGGCTACC | -0.175 |
| AATGCGTC | 0.185 |
| CAGAGTAA | 0.0459 |
| GTTCCTTA | -0.086 |
| ACGGGAAG | -0.217 |
| CAGAGATA | 0.0908 |
| CTGGCTCC | -0.261 |
| AGAGCCTC | -0.266 |
| TCATCGCA | 0.125 |
| ACTAGCCC | -0.191 |
| AGAGGCAG | -0.287 |
| AATAGTGA | 0.124 |
| AGGGAGTG | -0.143 |
| AGCACGTG | 0.397 |
| AACTGTAT | 0.0129 |
| CCTCATAG | 0.1 |
| GCTAGTAC | 0.0207 |

| Sequence | PBM E-score |
| --- | --- |
| CCAGGAAG | -0.0879 |
| TATCCTCA | -0.0101 |
| AGGCAACT | 0.158 |
| AACGAAAT | 0.261 |
| AAGGGACC | -0.26 |
| GCGGGTAC | -0.0713 |
| ACGGTAAG | -0.076 |
| CAACCGAA | 0.0842 |
| ACAACACA | 0.145 |
| AGAATGGC | 0.0313 |
| ACAGCCAT | 0.0326 |
| AATGGGGG | -0.334 |
| AGTTCGAT | -0.029 |
| AAGAAAGC | -0.0127 |
| AACTCCGT | -0.0262 |
| ACAGAGAT | 0.168 |
| CACGCACG | 0.204 |
| ATTTTGCC | -0.0624 |
| ATTGGGTG | 0.0341 |
| ACCGTGGG | -0.239 |
| TGCAGTAA | -0.0626 |
| CATCGTGG | -0.173 |

| Sequence | PBM E-score |
| --- | --- |
| GTCCGGAA | -0.102 |
| ACTAGGCA | -0.0299 |
| AGGTCGCA | -0.239 |
| AGGAGGGA | -0.3 |
| GTTTCAAA | 0.116 |
| AGATAAAT | 0.127 |
| GACACCAC | -0.0851 |
| ACATACTC | 0.0979 |
| AATGTAGC | -0.177 |
| ACGGCAGC | -0.123 |
| CGTAGTGA | 0.307 |
| GTCACTCA | 0.296 |
| CAGGCGGA | -0.17 |
| TAAAGAGA | 0.0871 |
| ACTGCGTG | 0.131 |
| GCAATCTA | 0.0367 |
| CAGCGATC | -0.12 |
| TGATAACA | 0.285 |
| GCAGCTCA | -0.116 |
| CCACCTGA | -0.0745 |
